Laboratory results as given in the supplement of paper PMC4967469.
The IC50 comes from the fitted curve, where viability falls to half of the control; a limit (>, <) means that the fit lies beyond the doses tested. AUC, from the same fit, is the share of area under the viability curve across the 256-fold dose range; values near 1 show little effect. For some assays here: The top dose, if marked as inferred, comes from the curve model; the source does not state it.

How the values were obtained:
Experiment in all cases: Viability of human cancer cell lines after 72 h of drug (GDSC screen)
[1] = compound: COC1=CC(c2cc3ccccc3[nH]2)=N/C1=C\c1[nH]c(C)cc1C [Obatoclax mesylate]; details: top dose 16 µM
Protocol: (§1)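 Human cancer cell lines in 384-well plates, medium with 10% serum, drug for 72 h over a 256-fold dose range (nine 2-fold or five 4-fold steps up to the top dose). Adherent lines were fixed and stained with the nucleic acid dye Syto60, suspension lines read with resazurin; signal relative to control wells, capped at 0 and 100%. One two-parameter sigmoid per drug and line, fitted in a mixed model over all curves with the slope shared within a line.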

[2] = compound: COCC(=O)NC/C=C/c1ccc2ncnc(Nc3ccc(Oc4ccc(C)nc4)c(C)c3)c2c1 [CP724714]; details: top dose 10.24 µM; top dose inferred
Protocol: as §1

[3] = compound: Cc1cccc(Nc2nc(-c3ccncc3)cs2)c1 [STF-62247]; details: top dose 10.24 µM; top dose inferred
Protocol: as §1

[4] = compound: Cc1cnc(CNC(=O)c2c(=O)c3ccc(N4CCCN(C)CC4)nc3n3c2sc2ccccc23)cn1 [CX-5461]; details: top dose 10.24 µM; top dose inferred
Protocol: as §1

Cell Line | AUC [1] | IC50 [1] | AUC [2] | IC50 [2] | AUC [3] | IC50 [3] | AUC [4] | IC50 [4]
SBC-3 (small cell lung carcinoma, adherent) | 0.141 | 0.0882 µM | 0.974 | > 10.2 µM | 0.985 | > 10.2 µM | 0.543 | 0.831 µM
SBC-5 (small cell lung carcinoma, adherent) | 0.251 | 0.229 µM | 0.984 | > 10.2 µM | 0.992 | > 10.2 µM | 0.993 | > 10.2 µM
SCC-4 (head and neck, adherent) | 0.586 | 1.8 µM | 0.979 | > 10.2 µM | 0.983 | > 10.2 µM | 0.967 | > 10.2 µM
SCC-9 (head and neck, adherent) | 0.545 | 1.37 µM | 0.951 | > 10.2 µM | 0.959 | > 10.2 µM | 0.732 | 3.59 µM
SCC-25 (head and neck, adherent) | 0.144 | 0.0641 µM | 0.942 | > 10.2 µM | 0.984 | > 10.2 µM | 0.59 | 1.17 µM
SF295 (glioma, adherent) | 0.377 | 0.445 µM | 0.978 | > 10.2 µM | 0.985 | > 10.2 µM | 0.869 | > 10.2 µM
SISO (cervix, adherent) | 0.59 | 1.74 µM | 0.985 | > 10.2 µM | 0.985 | > 10.2 µM | 0.935 | > 10.2 µM
SJRH30 (rhabdomyosarcoma, adherent) | 0.339 | 0.351 µM | 0.981 | > 10.2 µM | 0.979 | > 10.2 µM | 0.986 | > 10.2 µM
SK-CO-1 (large intestine, adherent) | 0.657 | 2.64 µM | 0.982 | > 10.2 µM | 0.986 | > 10.2 µM | 0.933 | > 10.2 µM
SK-HEP-1 (liver, adherent) | 0.269 | 0.231 µM | 0.989 | > 10.2 µM | 0.983 | > 10.2 µM | 0.965 | > 10.2 µM
SK-LU-1 (lung adenocarcinoma, adherent) | 0.244 | 0.146 µM | 0.971 | > 10.2 µM | 0.976 | > 10.2 µM | 0.849 | > 10.2 µM
SK-MEL-3 (melanoma, adherent) | 0.088 | < 0.0625 µM | 0.98 | > 10.2 µM | 0.967 | > 10.2 µM | 0.984 | > 10.2 µM
SK-MEL-24 (melanoma, adherent) | 0.485 | 0.902 µM | 0.983 | > 10.2 µM | 0.978 | > 10.2 µM | 0.833 | 8.68 µM
SK-MEL-28 (melanoma, adherent) | 0.527 | 1.18 µM | 0.988 | > 10.2 µM | 0.982 | > 10.2 µM | 0.986 | > 10.2 µM
SK-MEL-30 (melanoma, adherent) | 0.042 | < 0.0625 µM | 0.985 | > 10.2 µM | 0.982 | > 10.2 µM | 0.911 | > 10.2 µM
SK-MES-1 (lung squamous cell carcinoma, adherent) | 0.211 | – | 0.94 | > 10.2 µM | 0.972 | > 10.2 µM | 0.953 | > 10.2 µM
SK-N-AS (neuroblastoma, adherent) | 0.515 | 1.1 µM | 0.981 | > 10.2 µM | 0.977 | > 10.2 µM | 0.963 | > 10.2 µM
SK-N-SH (neuroblastoma, adherent) | 0.167 | 0.0978 µM | 0.985 | > 10.2 µM | 0.978 | > 10.2 µM | 0.687 | 2.13 µM
SK-OV-3 (ovary, adherent) | 0.403 | 0.506 µM | 0.956 | > 10.2 µM | 0.922 | > 10.2 µM | 0.897 | > 10.2 µM
SKG-IIIa (cervix, adherent) | 0.734 | 5.97 µM | 0.983 | > 10.2 µM | 0.983 | > 10.2 µM | 0.983 | > 10.2 µM
SKN (uterus, adherent) | 0.351 | 0.353 µM | 0.927 | > 10.2 µM | 0.971 | > 10.2 µM | 0.845 | 9.84 µM
SKN-3 (head and neck, adherent) | 0.423 | 0.592 µM | 0.978 | > 10.2 µM | 0.982 | > 10.2 µM | 0.966 | > 10.2 µM
SN12C (kidney, adherent) | 0.477 | 0.857 µM | 0.971 | > 10.2 µM | 0.967 | > 10.2 µM | 0.985 | > 10.2 µM
SNG-M (endometrium, adherent) | 0.045 | < 0.0625 µM | 0.923 | > 10.2 µM | 0.985 | > 10.2 µM | 0.986 | > 10.2 µM
SNU-182 (liver, adherent) | 0.14 | 0.0698 µM | 0.966 | > 10.2 µM | 0.969 | > 10.2 µM | 0.975 | > 10.2 µM
SNU-387 (liver, adherent) | 0.462 | 0.777 µM | 0.973 | > 10.2 µM | 0.978 | > 10.2 µM | 0.984 | > 10.2 µM
SNU-398 (liver, adherent) | 0.119 | < 0.0625 µM | 0.973 | > 10.2 µM | 0.979 | > 10.2 µM | 0.662 | 1.84 µM
